# Experimental data taken from the supplement of paper PMC8728848.
# This is one part of the list.
# B1: SialidaseA (Arthrobacter ureafaciens) (protein)
# chain: MRSNSTSAPSLVRRAATGVLTCAVSIGLLAGLGLPAQAAPTPPNSPTLPPGSFSETNLAADRTAANFFYRIPALTYLGNDVVLAAWDGRPGSAADAPNPNSIVQRRSTDGGKTWGPVQVIAAGHVADASGPRYGYSDPSYIYDAEANKVFAFFVYSKDQGFGGSQFGNDDADRNVISSAVIESSDAGVTWSQPRLITSVTKPGTSKTNPAAGDVRSNFASSGEGIQLKYGPHKGRLIQQYAGDVRQADGSNKIQAYSVYSDDHGVTWHKGANVGDRMDENKTVELSDGRVLLNSRDNANRGYRKVAVSTDGGATYGPVSQDTELPDPANNGAIARMFPNAAQGSADAKKLIFTNANSKTGRENVSARVSCDDGETWPGVRTIRSGFSAYSTVTRLADGKFGVLYEGNYTDNMPFATFDDAWLNYVCAPLAVPAVNIAPSATQEVPVTVTNQEATTLSGATATVYTPSGWSATTVPVPDVAPGASVTVTVALTAPADASGPRSLNAAFTTADGRVSQFTFTATTPVAPQVGLTITGSAPARDVAANPYQAGDVLGYTLNVKSTANVAANSVPLTGTFDSGFLPPAAPNCRYNNLAAGASYNCTTAKHTITAADMERGYFVPEATFSITSTTTPSLTKTVQFTGAAVALRDGLISADISGARTDVGRDLATRPYAAGELVPYAFTVKNTSPFVEQVVPTAGNFSPFLPAGAGNCRYLSLPAGQSYECATPRHAVTAEEVEQGFFVPDTTWEVSAAGQSTRTYRINGGEVDLLVRDAALSATVVAEWKDADGDRFASAGDPVTFTYTVGNAGNVALTGLEAPDAGISLPFLAPGDTATATREHVLTAADVAGGSLAASAFEATARNGSKEVTATAEGQPLELKVQPAQPSKEPELTVQDLEDQTPPFDLGTAFKYRTGQKVSLAGLEYGQWYYVYLNKTGYRLGWMFPTTGDTVEFILPPEVRNGRDDVVVLDKDGRRVSFDRLQVTPKGEKI
# What was measured:
# Experiment in all cases: glycan array binding signal (z-score within array); higher = stronger binding
# Details in all cases: glycan notation: IUPAC condensed, linker removed
# [1] = molecular target: GlcNAc(b1-3)Gal(b1-4)GlcNAc(b1-3)Gal(b1-4)GlcNAc(b1-3)GalNAc
# Procedure, shortened: (§1)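 The binding signal is a Z-score computed within each array. Data were drawn from 3228 arrays in the Consortium for Functional Glycomics database, restricted to those with a known protein sequence. Scores were averaged over arrays of the same protein sequence at different concentrations or buffers, and over linkers, and negative values can be taken as non-binding.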
# [2] = molecular target: GlcNAc(b1-3)Gal(b1-4)GlcNAc(b1-3)GalNAc
# Procedure, shortened: as §1
# [3] = molecular target: GlcNAc(b1-3)Gal(b1-4)GlcNAc(b1-3)[GlcNAc(b1-3)Gal(b1-4)GlcNAc(b1-3)]GalNAc
# Procedure, shortened: as §1
# [4] = molecular target: GlcNAc(b1-3)Gal(b1-4)GlcNAc(b1-6)[Gal(b1-3)]GalNAc
# Procedure, shortened: as §1
# [5] = molecular target: GlcNAc(b1-3)Gal(b1-4)GlcNAc(b1-6)[GlcNAc(b1-3)Gal(b1-3)]GalNAc
# Procedure, shortened: as §1
# [6] = molecular target: GlcNAc(b1-3)Gal(b1-4)GlcNAc(b1-6)[GlcNAc(b1-3)]Gal(b1-4)GlcNAc
# Procedure, shortened: as §1
# GlcNAc(b1-3)GalNAc = molecular target: GlcNAc(b1-3)GalNAc
# Procedure, shortened: as §1
# GlcNAc(b1-3)Man = molecular target: GlcNAc(b1-3)Man
# Procedure, shortened: as §1
# [7] = molecular target: GlcNAc(b1-3)[GlcNAc(b1-4)][GlcNAc(b1-6)]GlcNAc
# Procedure, shortened: as §1
# [8] = molecular target: GlcNAc(b1-3)[GlcNAc(b1-6)]Gal(b1-4)GlcNAc
# Procedure, shortened: as §1
# [9] = molecular target: GlcNAc(b1-3)[GlcNAc(b1-6)]GalNAc
# Procedure, shortened: as §1
# [10] = molecular target: GlcNAc(b1-4)Gal(b1-4)GlcNAc
# Procedure, shortened: as §1
# GlcNAc(b1-4)GlcNAc = molecular target: GlcNAc(b1-4)GlcNAc
# Procedure, shortened: as §1
# [11] = molecular target: GlcNAc(b1-4)GlcNAc(b1-4)GlcNAc
# Procedure, shortened: as §1
# [12] = molecular target: GlcNAc(b1-4)GlcNAc(b1-4)GlcNAc(b1-4)GlcNAc(b1-4)GlcNAc
# Procedure, shortened: as §1
# [13] = molecular target: GlcNAc(b1-4)GlcNAc(b1-4)GlcNAc(b1-4)GlcNAc(b1-4)GlcNAc(b1-4)GlcNAc
# Procedure, shortened: as §1
# [14] = molecular target: GlcNAc(b1-4)[GlcNAc(b1-6)]GalNAc
# Procedure, shortened: as §1
# [15] = molecular target: GlcNAc(b1-6)Gal(b1-4)GlcNAc
# Procedure, shortened: as §1
# GlcNAc(b1-6)GalNAc = molecular target: GlcNAc(b1-6)GalNAc
# Procedure, shortened: as §1
# [16] = molecular target: GlcNAc6S(b1-3)Gal(b1-4)GlcNAc
# Procedure, shortened: as §1
# Kdn(a2-3)Gal(b1-3)GalNAc = molecular target: Kdn(a2-3)Gal(b1-3)GalNAc
# Procedure, shortened: as §1
# Kdn(a2-3)Gal(b1-3)GlcNAc = molecular target: Kdn(a2-3)Gal(b1-3)GlcNAc
# Procedure, shortened: as §1
# Kdn(a2-3)Gal(b1-4)Glc = molecular target: Kdn(a2-3)Gal(b1-4)Glc
# Procedure, shortened: as §1
# Kdn(a2-3)Gal(b1-4)GlcNAc = molecular target: Kdn(a2-3)Gal(b1-4)GlcNAc
# Procedure, shortened: as §1
# [17] = molecular target: Kdn(a2-3)Gal(b1-4)[Fuc(a1-3)]GlcNAc
# Procedure, shortened: as §1
# Kdn(a2-6)Gal(b1-4)GlcNAc = molecular target: Kdn(a2-6)Gal(b1-4)GlcNAc
# Procedure, shortened: as §1
# [18] = molecular target: Man(a1-2)Man(a1-2)Man(a1-3)Man
# Procedure, shortened: as §1
# [19] = molecular target: Man(a1-2)Man(a1-2)Man(a1-6)[Man(a1-3)]Man
# Procedure, shortened: as §1
# Man(a1-2)Man(a1-3)Man = molecular target: Man(a1-2)Man(a1-3)Man
# Procedure, shortened: as §1
# [20] = molecular target: Man(a1-2)Man(a1-3)[Man(a1-2)Man(a1-6)]Man
# Procedure, shortened: as §1
binder,measurement,setting,value
B1,glycan array binding signal (z-score),[1],-0.596
same,glycan array binding signal (z-score),[2],-0.21
same,glycan array binding signal (z-score),[3],-0.073
same,glycan array binding signal (z-score),[4],-0.581
same,glycan array binding signal (z-score),[5],-0.773
same,glycan array binding signal (z-score),[6],-0.712
same,glycan array binding signal (z-score),GlcNAc(b1-3)GalNAc,-0.842
same,glycan array binding signal (z-score),GlcNAc(b1-3)Man,-0.685
same,glycan array binding signal (z-score),[7],-0.598
same,glycan array binding signal (z-score),[8],-0.318
same,glycan array binding signal (z-score),[9],-0.754
same,glycan array binding signal (z-score),[10],-0.492
same,glycan array binding signal (z-score),GlcNAc(b1-4)GlcNAc,-0.666
same,glycan array binding signal (z-score),[11],-0.508
same,glycan array binding signal (z-score),[12],-0.744
same,glycan array binding signal (z-score),[13],-0.757
same,glycan array binding signal (z-score),[14],-0.568
same,glycan array binding signal (z-score),[15],-0.51
same,glycan array binding signal (z-score),GlcNAc(b1-6)GalNAc,-0.628
same,glycan array binding signal (z-score),[16],-0.672
same,glycan array binding signal (z-score),Kdn(a2-3)Gal(b1-3)GalNAc,1.22
same,glycan array binding signal (z-score),Kdn(a2-3)Gal(b1-3)GlcNAc,1.66
same,glycan array binding signal (z-score),Kdn(a2-3)Gal(b1-4)Glc,0.165
same,glycan array binding signal (z-score),Kdn(a2-3)Gal(b1-4)GlcNAc,1.14
same,glycan array binding signal (z-score),[17],0.943
same,glycan array binding signal (z-score),Kdn(a2-6)Gal(b1-4)GlcNAc,2.96
same,glycan array binding signal (z-score),[18],-0.731
same,glycan array binding signal (z-score),[19],0.26
same,glycan array binding signal (z-score),Man(a1-2)Man(a1-3)Man,-0.767
same,glycan array binding signal (z-score),[20],-0.413
